According to the supplement of paper PMC4166925:
± gives the standard deviation of the averaged measurements. In all, about 33,000 sequences were measured (“E-score (dimensionless, -0.5 to 0.5)”: median about -0.049, highest 2% from about 0.37 on). The list shows a part of the results.

Tested on: T1, PmTbr T-box DNA-binding domain (GST fusion)
T1 sequence: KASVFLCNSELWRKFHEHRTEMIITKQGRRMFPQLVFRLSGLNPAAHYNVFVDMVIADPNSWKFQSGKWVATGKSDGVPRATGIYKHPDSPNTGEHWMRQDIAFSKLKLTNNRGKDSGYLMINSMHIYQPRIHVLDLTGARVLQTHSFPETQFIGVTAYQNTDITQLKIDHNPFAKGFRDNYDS
Experiment: PBM E-score of 8-mer (E-score (dimensionless, -0.5 to 0.5)); Tbr is Tbrain of the sea star Patiria miniata (Pm) or the sea urchin Strongylocentrotus purpuratus (Sp); higher = stronger binding preference; most listed sequences are background and not binding sites
Settings: the construct has about 5 more residues each side
Outline: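 Universal Agilent oligonucleotide arrays, made double-stranded by primer extension, were incubated with 200 nM GST-fused Tbr T-box DNA-binding domain in PBS (pH 7.5). The protein was expressed in BL21 E. coli at 20 °C and purified by glutathione affinity chromatography. After scanning and quantification, the Universal PBM Analysis Suite assigned an enrichment E-score to each ungapped 8-mer, averaged over duplicate arrays.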

| Sequence | PBM E-score of 8-mer |
| --- | --- |
| GAAATACC | -0.114 ± 0.027 |
| GAAGCCCC | -0.376 ± 0.011 |
| AGGAGAGG | -0.163 ± 0.055 |
| AGGCAGGG | -0.186 ± 0.049 |
| ATAGGAAT | -0.328 ± 0.021 |
| CAGCGAGC | 0.207 ± 0.077 |
| GCCCCGCC | -0.0692 ± 0.0097 |
| CCTTCATA | 0.156 ± 0.061 |
| ACTAACGA | 0.0528 ± 0.0092 |
| CGTCGTGA | -0.026 ± 0.018 |
| AGGGGACT | -0.0959 ± 0.02 |
| ACCTTTGG | 0.0854 ± 0.013 |
| GAGTTAGC | 0.129 ± 0.053 |
| GTGCGCAA | 0.097 ± 0.0053 |
| CGAACGCG | 0.241 ± 0.022 |
| TCCCTCGA | -0.134 ± 0.035 |
| CGTTTCGC | 0.205 ± 0.038 |
| GCAACTAA | -0.0834 ± 0.1 |
| GTCGTCTA | -0.189 ± 0.028 |
| CAAGAAGC | -0.102 ± 0.07 |
| AGGCCTCA | 0.00805 ± 0.0099 |
| AGTAAACA | 0.0849 ± 0.082 |
| CACCCGGA | 0.283 ± 0.025 |
| CCCCGGAC | -0.207 ± 0.019 |
| CAACGGAG | -0.088 ± 0.033 |
| CTTACAGC | -0.0711 ± 0.032 |
| CCACTCAG | -0.0862 ± 0.14 |

| Sequence | PBM E-score of 8-mer |
| --- | --- |
| CTTACTAC | -0.168 ± 0.0026 |
| ATCGCCCC | 0.0187 ± 0.0065 |
| GGAGGGAC | -0.204 ± 0.027 |
| CAGGACTG | -0.173 ± 0.075 |
| ATTTTTGG | -0.0403 ± 0.032 |
| ACTAGTGC | 0.101 ± 0.0089 |
| ACACTAAC | 0.334 ± 0.025 |
| CACACCCA | 0.423 ± 0.012 |
| CGATAGAC | -0.0834 ± 0.035 |
| GTCTCCAA | -0.243 ± 0.063 |
| GTACTAAA | -0.209 ± 0.05 |
| CCTCCTAC | 0.0114 ± 0.069 |
| CCGACGTA | -0.034 ± 0.021 |
| AGAGAAGG | -0.0063 ± 0.063 |
| ATTGAATC | -0.0765 ± 0.04 |
| ATTTCACG | 0.319 ± 0.026 |
| AGACTAAG | -0.287 ± 0.035 |
| GAGCTTGA | -0.102 ± 0.069 |
| CGGAACCC | -0.314 ± 0.0082 |
| ACCTGCTA | 0.3 ± 0.014 |
| AGTTGAGG | -0.193 ± 0.0083 |
| ACTTATCC | -0.264 ± 0.03 |
| AAGGTTTC | 0.0322 ± 0.0076 |
| GCCTGGAC | -0.101 ± 0.011 |
| AGGTCGCG | 0.237 ± 0.027 |
| ACCTACCA | 0.228 ± 0.0028 |
| CGAGAGGC | 0.0743 ± 0.058 |
